PubChem BioAssay AID1671194 (National Center for Advancing Translational Sciences (NCATS), 2021)
The campaign covered roughly 140,000 compounds. About 240 (0.17%) were called active. The inconclusive results got no clear call from the source; some entries with a clear call stand among them for comparison. Calls follow the shape of the dose curve; as a rule, active = well fitted inhibition curve with a large enough effect; inconclusive = small, poorly fitted or top-dose-only effect; inactive = no such curve, though single readings can be large or run the other way. Potencies beside an inconclusive call are fits to weak or partial responses and may not hold up.

Test: Primary qHTS assay for inhibitors of alpha-synuclein gene (SNCA) expression; also: nearly all actives have a fitted effect of over 45% in size;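 as to activity change, negative = inhibition: plate controls were DMSO cells for no effect and cell-free wells for full effect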
Settings: HEK-293 SNCA-luciferase knock-in, luminescence, 24 h; activity change, negative = inhibition: at 57.2 µM (top of the series) unless noted
Potency is read from the fitted curve at half-maximal effect; tags tell the direction and shape of the fitted curve.

| Structure (SMILES) | activity change, negative = inhibition | Potency |
| --- | --- | --- |
| Cc1nc2scc(CC(=O)NCc3ccco3)n2c(=O)c1-c1cc(C)n(-c2cc(F)ccc2F)n1 | inactive: -20.4% |  |
| COc1ccc2[nH]cc(CCNc3ncncc3-c3ccccc3Cl)c2c1 |  | inconclusive: 35.5 µM [inhibitor, single point] |
| COc1ccccc1NC(=O)c1sc2nc(N3CCOCC3)c3c(c2c1N)CC(C)(C)OC3 |  | inconclusive: 39.8 µM [inhibitor, single point] |
| CS(=O)(=O)N1CC2(CCN(Cc3c[nH]c4ccccc34)C2)Cc2ccccc21 (stereo not given) |  | inconclusive: 28.2 µM [inhibitor, single point] |
| CCc1ccc(NC(=O)Cn2ccn3nc4c(c3c2=O)CC(C)CC4)cc1 (stereo not given) | inactive: -17.6% |  |
| CCc1ccc(Cn2c(CNS(=O)(=O)c3ccc(F)c(Cl)c3)nc3cccnc32)cc1 | inactive: -1.99% |  |
| COc1ccc(N2CC3CCC(C2)N3Cc2cccc(-c3cccnc3)c2)cc1 |  | inconclusive: 22.4 µM [inhibitor, single point] |
| Cc1cc(S(=O)(=O)N[C@@H]2CCOC[C@H]2Oc2ccccn2)c(C)s1 |  | inconclusive: 12.6 µM [inhibitor, partial curve, poor fit] |
| O=[S+]([O-])(c1cccs1)N1CCCC2(CC(c3ccccc3)=NO2)C1 (stereo not given) |  | inconclusive: 8.91 µM [inhibitor, single point] |
| COc1cc(OC)cc(C(=O)N2CCC(n3cc(-c4nc(C)no4)nn3)C2)c1 (stereo not given) |  | inconclusive: 1.58 µM [inhibitor, partial curve, poor fit] |
| CN(Cc1ccc2nonc2c1)C(=O)C1CCN(C(=O)C2CCCC2)CC1 | inactive: -19.5% |  |
| CCOc1ccc(-c2cc(C(=O)N3CCN(S(=O)(=O)c4cc(Cl)ccc4OC)CC3)[nH]n2)cc1 |  | inconclusive: 39.8 µM [inhibitor, single point] |
| CNC(=O)[C@@H]1CN(S(=O)(=O)c2cccc(C#N)c2)C[C@H]1C1CCN(C)CC1 | inactive: -1.49% |  |
| COc1ccc(OC)c(CCNC(=O)c2cc3c(s2)-c2c(C)cccc2OC3)c1 |  | inconclusive: 3.55 µM [inhibitor, full curve] |
| COCCOc1ccc2c(n1)CCN(C(=O)c1ccc(OC)nc1)C2 |  | inconclusive: 3.98 µM [inhibitor, single point] |
| Cc1nc(Cn2nc(C3CCCNC3)n(-c3ccccc3)c2=O)cs1 (stereo not given) |  | inconclusive: 7.08 µM [inhibitor, single point] |
| COc1ccc(CN2C(=O)C(NC(=O)c3cccc(C)c3)(C(F)(F)F)N=C2c2ccccc2)cc1 (stereo not given) |  | inconclusive: 39.8 µM [inhibitor, single point] |
| O=C(NCc1sc2ccccc2c1Cl)[C@H]1CCC[C@H](O)C1 | inactive: 13.3% |  |
| COc1cc(F)ccc1-c1cc2c(nc1-c1ccccc1)nc(C(=O)NCCN(C)C)n2C | inactive: -16.5% |  |
| CCOc1ccccc1CN1CCn2c(nnc2[C@@H]2C[C@@H](O)CN2Cc2cccnc2)C1 |  | inconclusive: 28.2 µM [inhibitor, single point] |

| Structure (SMILES) | activity change, negative = inhibition | Potency |
| --- | --- | --- |
| O=C(CN1C(=O)C2(SCC(=O)N2c2cccc(Cl)c2)c2ccccc21)NCCc1ccccc1 (stereo not given) |  | inconclusive: 39.8 µM [inhibitor, single point] |
| O=C(CCc1conc1-c1cccc(F)c1)NC1CCCCCC1 |  | inconclusive: 28.2 µM [inhibitor, single point] |
| CCOc1ccc(CNC(=O)c2ccc3c(c2)c(C)c(C)n3Cc2ccccc2)cc1OC |  | inconclusive: 39.8 µM [inhibitor, single point] |
| CCN(c1cccc(C)c1)S(=O)(=O)c1cc(Br)cc2c1N(C(C)=O)C(C)C2 (stereo not given) |  | inconclusive: 15.8 µM [inhibitor, partial curve, poor fit] |
| CC1=C[C@@H](CNC(=O)c2cnccn2)[C@H](C(C)C)C[C@H]1Cc1nc2ccccc2[nH]1 |  | inconclusive: 56.2 µM [inhibitor, single point] |
| O=C(CCn1ccn2nc3c(c2c1=O)CCCC3)NCCCc1ccccc1 |  | inconclusive: 10 µM [inhibitor, partial curve, poor fit] |
| COc1ccc(-c2cnc([C@@H]3COCCN3Cc3cn(C)c4ccccc34)[nH]2)cc1 |  | inconclusive: 31.6 µM [inhibitor, single point] |
| O=C1Nc2ccc(-c3cccs3)cc2C(=O)N2CC[C@H](NS(=O)(=O)c3cccs3)[C@@H]12 |  | inconclusive: 25.1 µM [inhibitor, single point] |
| O=C(c1ccc(F)cc1)c1cn(Cc2ccccc2F)c2cc3c(cc2c1=O)OCCO3 |  | inconclusive: 2.24 µM [inhibitor, full curve] |
| CC(C)CNC(=O)c1ccc2c(c1)C1(CCN(C)C1)CN2CC1CC1 (stereo not given) | inactive: 15.2% [at 87.6 µM] |  |
| CC(=O)Nc1ccc(S(=O)(=O)NC2(C(F)(F)F)C(=O)Nc3c2c(=O)[nH]c(=O)n3-c2cccc(Cl)c2)cc1 (stereo not given) |  | inconclusive: 31.6 µM [inhibitor, single point] |
| CC1=C[C@@H](CNC(=O)NC(C)C)[C@H](C(C)C)C[C@H]1Cc1nnc(-c2ccccc2F)o1 |  | inconclusive: 56.2 µM [inhibitor, single point] |
| COc1ccc(OC)c(CN2CCc3ncc(C(=O)Nc4ccccc4)n3CC2)c1 | inactive: -7.57% [at 87.6 µM] |  |
| COc1ccc(-c2cnc3n[nH]c(-c4ccccc4C)c3n2)cn1 |  | inconclusive: 15.8 µM [inhibitor, partial curve, poor fit] |
| Cn1nc2n(c1=O)CCN(C(=O)c1cscn1)CC2 |  | inconclusive: 39.8 µM [inhibitor, single point] |
| CSc1cccc(NC(=O)c2cnn(-c3ccc(F)cc3)c2-n2cccc2)c1 |  | inconclusive: 10 µM [inhibitor, partial curve, poor fit] |
| COc1ccc(OC)c(CNC(=O)C2CCCCC(=O)N2)c1 (stereo not given) | inactive: -8.53% |  |
| CCSc1nn(CC(=O)Nc2cccc(CC)c2)c(N)c1S(=O)(=O)c1ccccc1 |  | inconclusive: 39.8 µM [inhibitor, single point] |
| CC(C)(C)c1ccc(NC(=O)O[C@@H]2CO[C@H]3[C@@H]2OC[C@@H]3Nc2nccc(-c3cccs3)n2)cc1 |  | inconclusive: 6.31 µM [inhibitor, single point] |
| Cc1ccc(S(=O)(=O)c2c(O)cc(C)c(NS(=O)(=O)c3ccc(Br)cc3)c2C)cc1 |  | inconclusive: 28.2 µM [inhibitor, single point] |

| Structure (SMILES) | activity change, negative = inhibition | Potency |
| --- | --- | --- |
| c1cc(-c2cc3c(ccn3Cc3ccncc3)c(N3CCOCC3)n2)c2[nH]ncc2c1 |  | inconclusive: 12.6 µM [inhibitor, full curve, poor fit] |
| O=C(c1cccc(C(F)(F)F)c1)N1CCN(C2CCN(Cc3cccnc3)C2=O)CC1 (stereo not given) |  | inconclusive: 5.62 µM [inhibitor, full curve, poor fit] |
| Cc1ccc(C2NC(=O)N(CC(=O)Nc3ccc(Br)cc3F)C3=C2C(=O)OC3)cc1 (stereo not given) |  | inconclusive: 39.8 µM [inhibitor, single point] |
| Cn1ccnc1C(=O)N1CCC(Cc2ccc(CCC(=O)N3CCCC3)cc2)CC1 | inactive: -13.6% |  |
| Cc1ccccc1-n1nc(C)c([C@H]2C=C[C@@H](OC(=O)NC(C)C)C2)c1C | inactive: -7.93% [at 87.6 µM] |  |
| Cc1cc(O)c(C(c2ccccc2)N2CCCCC2)c(=O)n1Cc1ccco1 (stereo not given) |  | inconclusive: 20 µM [inhibitor, partial curve, poor fit] |
| Cn1nccc1C(=O)N1CCC2(CC1)OC(=O)N(Cc1ccccc1)C2(C)c1ccccc1 (stereo not given) |  | inconclusive: 3.55 µM [inhibitor, single point] |
| CC(C)(C)OC(=O)N1CCC(c2c(C(=O)NCc3ccccc3)cnn2-c2cccc(F)c2)CC1 |  | inconclusive: 39.8 µM [inhibitor, single point] |
| Cc1cccc2nc(CNC(=O)c3cc(COc4ccc(F)cc4F)on3)cn12 |  | inconclusive: 39.8 µM [inhibitor, single point] |
| Cc1ccc(C2NC(=O)N(CC(=O)NCCc3ccc(Cl)cc3)C3=C2C(=O)OC3)cc1 (stereo not given) |  | inconclusive: 39.8 µM [inhibitor, single point] |
| CCc1cc(N2C[C@H]3CN(C4CCOCC4)C[C@@]3(C(=O)O)C2)nc(C)n1 |  | inconclusive: 39.8 µM [inhibitor, single point] |
| Cc1cc(C)cc(Nc2nc(C)cc(=O)n2CC(=O)Nc2ccc(Br)cc2)c1 |  | inconclusive: 39.8 µM [inhibitor, single point] |
| CCC(C)NC(=O)CC1=CSC2=NC(C)=C(C(=O)Nc3ccccc3)C(c3cccc(C)c3)N12 (stereo not given) |  | inconclusive: 10 µM [inhibitor, partial curve, poor fit] |
| CN(C(=O)c1ccc2c(c1)N(Cc1cccc(Cl)c1)C(=O)c1ccccc1S2(=O)=O)C1CCCCC1 |  | inconclusive: 39.8 µM [inhibitor, single point] |
| COc1ccc(NC(=O)COCc2cc(-c3ccc4c(c3)OCO4)on2)cc1 |  | inconclusive: 39.8 µM [inhibitor, single point] |
| Cc1ccc(Cn2c(SCc3ccc(C(=O)NC4CCCCC4)cc3)nc3ccncc32)cc1 |  | inconclusive: 20 µM [inhibitor, single point] |
| Cc1ccc(CN2CCC(CNC(=O)c3cnn(-c4ccccc4Cl)c3C3CCN(C(=O)OC(C)(C)C)CC3)CC2)cc1 |  | inconclusive: 31.6 µM [inhibitor, single point] |
| Cc1ccc(C)c(NC(=O)N2CCC(Oc3ncccc3C(=O)N3CCOCC3)C2)c1 (stereo not given) | inactive: -18.9% |  |
| Cc1nccn1-c1ccc(CNC(=O)C(c2ccc(F)cc2)N(C)C)cc1 (stereo not given) |  | inconclusive: 39.8 µM [inhibitor, single point] |
| COc1ccc(-c2cc3c(=O)n(CCNC(=O)c4cccc(OC)c4OC)ccn3n2)cc1 | inactive: -3.46% |  |
